From publication PMC12136788
Where a chain is given by its changes, count along the chain named. This is one part of the list.

T1: UNK ZnF1-3 (human, UniProt Q9C0B0 31-174)
T1 sequence: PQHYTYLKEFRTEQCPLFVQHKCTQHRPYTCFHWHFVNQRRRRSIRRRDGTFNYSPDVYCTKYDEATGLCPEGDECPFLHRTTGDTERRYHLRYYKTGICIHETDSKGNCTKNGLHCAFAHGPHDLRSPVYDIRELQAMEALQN

B1: chr1:163112212:163112213:-_ENSG00000143248_ENST00000313961|hu_hu|hu_hu_hu_mus_False|18_98 (ssRNA)
RNA: GGGAGUUCUACAGUCCGACGAUCUUUUAUUAUCAGUAAGCAUGAGUUACAUACUAGGCAAAGUAUUGGAUACAAUAAUCAGGAAACAAACACUAUUGGUCCAGAAUUUAAAACUUUUGGGAUAAAUUGCUGGCACAGGACUUACAACAGAGGAUUGAGCAUCA
B2: chr11:77336104:77336105:-_ENSG00000074201_ENST00000525064|hu_mus|hu_hu_hu_mus_False|78_88 (ssRNA)
RNA: GGGAGUUCUACAGUCCGACGAUCCUCACACAUUGCUGUGAACAUCGCCUCCAACGCUGAUUUAUCACUGGGCACAAAUCGAAAUUCAGAAAUGGGUUCAACAUCAUCAUUGUCUUCCUCAUCUUCAUCAGAGAGAGGUUCUUUCAACAGAGGAUUGAGCAUCA
B3: chr18:46664354:46664355:-_ENSMUSG00000033319_ENSMUST00000036226|mus_mus|FALSE|FALSE (ssRNA)
RNA: GGGAGUUCUACAGUCCGACGAUCCGGUUCAGGGAACACUGUAGCAGAAAUGGUUUGGGAGAAAAAGUGGAAACAGGCAAAACUUGAAGACAGAAGUGGGAGCCAGGGGAGGAUGACUUCCAAUUGUAUAAAAUUCACAUACUACAACAGAGGAUUGAGCAUCA
B4: 91403186_91404512_1351_CDS_ENSMUSG00000040549_ENSMUST00000099716|mouse|control|control (ssRNA)
RNA: GGGAGUUCUACAGUCCGACGAUCAGCAUCUCUGACUUCAGGAGCAGAAUCAUUGAUGUGCUUAAGUAGAGCAGCACAAAAGGGUUUUAGUAGACUCUUCGGCAAUGUAGAGGAAGUGCAGUGACGAAAGCUUCUUGCAAUAAACAACAGAGGAUUGAGCAUCA
B5: chr12:118673417:118673418:-_ENSG00000135090_ENST00000392533|hu_hu|FALSE|FALSE (ssRNA)
RNA: GGGAGUUCUACAGUCCGACGAUCAGGUGUGCCCACGAAGGAGUUGGCAGGAGAAGCCAUUGAAGCAGAUCCAAAAUCAGCUAGUUUUACCUGACCUGGCUCUGUUAGAAGAAUAUUUCCUGCUUUAAUAUCCCUAUGAAUCAACAACAGAGGAUUGAGCAUCA
B6: chr5:22955990:22955991:+_ENSMUSG00000029004_ENSMUST00000094962|mus_hu|FALSE|FALSE (ssRNA)
RNA: GGGAGUUCUACAGUCCGACGAUCUGCAUUGGUAUCCAAAACACUGGGGCAUGCCAGCCACAGUGCUCAUUGCAAACAUCUAAGUGCAUCCACAAACCCAUGAGAUGUCUGGUAAAUCUGAGGUCCAAGAAAGAAUAAAUGUCUCAACAGAGGAUUGAGCAUCA
B7: chr1:175956164:175956165:-_ENSG00000143207_ENST00000367666|hu_hu|motif|central (ssRNA)
RNA: GGGAGUUCUACAGUCCGACGAUCAGCAGCAAUCAGCACAUUGGACUCCCCAUCUGGUAGUGCCCUCCAGCACACAGCACGGACAAAUUCAUUUGUAUCAUCUUCUUUUCGGUCUUUGUCGAGAACACUUUUGACUGUAUCAAACAACAGAGGAUUGAGCAUCA
B8: chr3:119450855:119450856:-_ENSMUSG00000028134_ENSMUST00000029780|mus_hu|FALSE|FALSE (ssRNA)
RNA: GGGAGUUCUACAGUCCGACGAUCUGUGGUGCCACUAAGAGGAGUAUUUGCUGUCUGGACAGCUGUCACAGCUUGAAGAACUGCCUGAGCACGUUGGUUUAAUGUAUUAUCUGUCUUUAGUUCUUUGUGAUUCGAGUACUGGAUCAACAGAGGAUUGAGCAUCA
B9: chr7:141438946:141438947:+_ENSG00000106028_ENST00000265304|hu_mus|hu_hu_hu_mus_True|38_58 (ssRNA)
RNA: GGGAGUUCUACAGUCCGACGAUCGACGAAAUACCUGUAACACAGGUCUUCGAAACAUGGCUUCUGUUUUUCUUACAGUCUAAUCUUUAGGCUUUUCCUGACGAUCUGAAAGAAAAGAGAAAAAUGAUAAAUCAAGAAACUACACAACAGAGGAUUGAGCAUCA
B10: chr2:225400320:225400321:-_ENSG00000036257_ENST00000409096|hu_mus|FALSE|FALSE (ssRNA)
RNA: GGGAGUUCUACAGUCCGACGAUCAUUUUCUACAUUAUUCUGUUGUACAUAUACACGGUCCAUAUACAUUAAUAUGUCUCUAAUCAUCACCAUGGCUGUUUGAUGAUCAUUCCAAGCUUGAUUUAGUGUUUGAAGAAAGUUGUUCAACAGAGGAUUGAGCAUCA
B11: chr3:119450855:119450856:-_ENSMUSG00000028134_ENSMUST00000029780|mus_mus|motif|central (ssRNA)
RNA: B8 RNA with A42U, A60C, U81G, C84U, A87C, C132G
B12: 35990427_35990547_4149_CDS_ENSMUSG00000061607_ENSMUST00000082337|mouse|control|control (ssRNA)
RNA: GGGAGUUCUACAGUCCGACGAUCAGAGGUGGAAGGCUCAAAAUCAGGGGCCACUGGCCCAACUGAUUCACAAUCUUCAGUGGAGGGUUUAUAUGUCCUUCCCUGAGUGACCAGAGCUGUAGGCUUAGGGGCAGGCUGUUUUUUCAACAGAGGAUUGAGCAUCA
B13: chr17:17165348:17165349:-_ENSG00000141030_ENST00000268717|hu_hu|motif|central (ssRNA)
RNA: GGGAGUUCUACAGUCCGACGAUCAAUUUGAGAUGUAUAUUUUGGUAGCUGUUGUACUUUGCCAAGUAAUAUCAAAGACACGGAAAUAUACUUUUUAUAUGAUUCCAACAUGAUAUGACUGACCGCCAUGGCAGGAGUAGUUAUCAACAGAGGAUUGAGCAUCA
B14: 6378624_6387464_541_CDS_ENSG00000097021_ENST00000608083|human|control|control (ssRNA)
RNA: GGGAGUUCUACAGUCCGACGAUCGACAGUGUUCGGCUCUGGGUUGAGGACUGGCUGGACGAUGUCCCCGUUCCUCCACUUGGUCUCCAUGCGCUCCAGCUUCUGGGCUUCAUACCGCUUCCGGCCCUCCUCCUCCUGCUCCUGCAACAGAGGAUUGAGCAUCA
B15: chr7:151048522:151048523:+_ENSG00000013374_ENST00000566856|hu_mus|hu_hu_hu_mus_True|18_28 (ssRNA)
RNA: GGGAGUUCUACAGUCCGACGAUCCUGUUUCUUAUUUAUUACGAUCUUGAUGUAAUUUUCUUGAAAUCCGAAAGUUUCAGCUAUUUGACACCUCAGGUCUCUACCAGUGAUGUGCAAUCGGGUCUCCAACAAGCUUUUCUUAUCCAACAGAGGAUUGAGCAUCA
B16: chr17:6048899:6048900:-_ENSMUSG00000015659_ENSMUST00000097432|mus_mus|FALSE|FALSE (ssRNA)
RNA: GGGAGUUCUACAGUCCGACGAUCUUUGACUUCCAGUGAGGGAAAGAGAAGAUAUCGAAUAUUAACGGAGUAUUCAGCCAAACGUGACCCAUGGUGAGGGACACUGUAAAAAAUAAUUCCUCUGGUAUUGUUUAUAAGAGCAUUCAACAGAGGAUUGAGCAUCA
B17: chr16:45382771:45382772:-_ENSMUSG00000022661_ENSMUST00000163230|mus_mus|mus_mus_mus_hu_True|58_58 (ssRNA)
RNA: GGGAGUUCUACAGUCCGACGAUCCUGGGUCAUGUUAUAAGACAAAUGGACAGGGAGGGCAUGCUUCUCAAAAAAUGUGAACUACUCUCUAAGACUAACAAUAUUUAUCUAGCUAUAAAAAUAAGUUAAAUGAAUAAGUUAAGACAACAGAGGAUUGAGCAUCA
B18: chr18:25532265:25532266:-_ENSG00000170558_ENST00000399380|hu_mus|motif|central (ssRNA)
RNA: GGGAGUUCUACAGUCCGACGAUCGGAGUUGAGGGAGCUCAAGGAGCCAGCCGUGGAGCCGCUGCCCUCGUAGUCAAAGACGGAGAGGGAGUCAUACGGUGGCGCCGUGGGGUCGUUGUCAGCAGCUUUAAGGCCCUCAUUAAUCAACAGAGGAUUGAGCAUCA
B19: chr3:52726942:52726943:+_ENSG00000163938_ENST00000418458|hu_hu|motif|central (ssRNA)
RNA: GGGAGUUCUACAGUCCGACGAUCUCGCAGAGCAAGCGCAGAGGAGGAAUUAAGUGGAGAUACGAUGAAGCUCGGACGGUCGGUGAUUGUGAUCUGUUUGUCCAAGGGGACAACUUGCAUGCUCCUUGUAAGCCCCAUGGAUACCAACAGAGGAUUGAGCAUCA
B20: chr12:48362563:48362564:+_ENSG00000134291_ENST00000256686|hu_hu|hu_hu_hu_mus_False|38_58 (ssRNA)
RNA: GGGAGUUCUACAGUCCGACGAUCUCCGUCAAGCCCUUCGAUAGACCCUUGCGGGGGAAACUGUAAUCACUUUGUAUUUCUAAAAAAAAGAAACGCCAACACACUUUCAAAAAGCGGGGGUGGGGUGAGGCGGGAGGGGGAGGUCAACAGAGGAUUGAGCAUCA
B21: chr3:197553776:197553777:+_ENSG00000186001_ENST00000438796|hu_mus|FALSE|FALSE (ssRNA)
RNA: GGGAGUUCUACAGUCCGACGAUCGCACGAGAAGUCGAGCCGUAUCAAAGGCACCUCUGCCAGCUCUUCAGGCAAGCGUAGAAGAUGAUUUCUUCUUACAUUGAAGUCUCUCAAGGCUUCCAGAUUACCAAUUUGGGAAGGCACCAACAGAGGAUUGAGCAUCA
B22: chr14:89307221:89307222:+_ENSG00000165533_ENST00000346301|hu_mus|hu_hu_hu_mus_False|18_98 (ssRNA)
RNA: GGGAGUUCUACAGUCCGACGAUCUCCUGUUUGGUUAGUUCCAGGGAGCUUCAAAGAUGUGCCAGGGCGUGGGACCUGAGCAAUAGCAUUUUCAUCCAGGAUCAUUUCAGCAAUUCCUUCCUGAUCUACAUCAAUUUCAUCUAUCAACAGAGGAUUGAGCAUCA

These binders were tested against T1, UNK ZnF1-3 (assay: nsRBNS (natural sequence RNA bind-n-seq); RBNS binding buffer (assumed for nsRBNS): 25 mM Tris pH 7.5, 150 mM KCl, 3 mM MgCl2, 0.01% Triton X-100, 500 ug/ml BSA, 20 U/ml SUPERase-In, 4 C; UNK is unkempt and MSI1 is Musashi-1; names of the RNAs are library labels; protein concentration not given here; high values mean tight binding).

B1 was tested. Which binding signal did it give?
Its binding signal is 1.48 enrichment R.

B2 was tested. Which binding signal did it give?
The binding signal was 1.13 enrichment R.

For B3, which binding signal is on record?
Its binding signal is 3.07 enrichment R.

With B4 as the binder, how does the binding signal read?
The binding signal was 1.32 enrichment R.

How did the binding signal turn out when B5 was run?
The binding signal was 0.542 enrichment R.

For B6, which binding signal is on record?
The binding signal was 0.839 enrichment R.

With B7 as the binder, how does the binding signal read?
The binding signal was 1.03 enrichment R.

How did the binding signal turn out when B8 was run?
Its binding signal is 0.725 enrichment R.

B9 was tested. Which binding signal did it give?
Its binding signal is 0.591 enrichment R.

B10 was tested. Which binding signal did it give?
Its binding signal is 0.461 enrichment R.

For B11, which binding signal is on record?
The binding signal was 0.763 enrichment R.

For B12, which binding signal is on record?
The binding signal was 1.2 enrichment R.

Which binding signal does the source give for B13 here?
Its binding signal is 0.639 enrichment R.

For B14, which binding signal is on record?
The binding signal was 0.611 enrichment R.

With B15 as the binder, how does the binding signal read?
The binding signal was 0.502 enrichment R.

Which binding signal does the source give for B16 here?
The binding signal was 1.41 enrichment R.

For B17, which binding signal is on record?
The binding signal was 1.02 enrichment R.

How did the binding signal turn out when B18 was run?
Its binding signal is 1.4 enrichment R.

How did the binding signal turn out when B19 was run?
The binding signal was 0.89 enrichment R.

With B20 as the binder, how does the binding signal read?
The binding signal was 2.67 enrichment R.

B21 was tested. Which binding signal did it give?
The binding signal was 0.85 enrichment R.

B22 was tested. Which binding signal did it give?
The binding signal was 0.749 enrichment R.
